Hit rate of the full screen: of about 150,000 compounds, about 190 (0.13%) were called active. Inconclusive results, whose numbers are uncertain, are shown with a selection of clear calls. The call rests on the fitted dose curve; in most records, active means well fitted inhibition curve with a large enough effect; inconclusive means small, poorly fitted or top-dose-only effect; inactive means flat fitted curve, though single readings scatter. Potencies beside an inconclusive call are fits to weak or partial responses and may not hold up.
These molecules were tested against Polyunsaturated fatty acid lipoxygenase ALOX12 (Homo sapiens) (UniProt P18054) (assay: qHTS Assay for Inhibitors of 12-hLO (12-human lipoxygenase)). Settings: purified 12-hLO, xylenol orange hydroperoxide absorbance; series mostly up to 57.1 µM.
Chain of UniProt P18054 (P18054 whole entry, looked up): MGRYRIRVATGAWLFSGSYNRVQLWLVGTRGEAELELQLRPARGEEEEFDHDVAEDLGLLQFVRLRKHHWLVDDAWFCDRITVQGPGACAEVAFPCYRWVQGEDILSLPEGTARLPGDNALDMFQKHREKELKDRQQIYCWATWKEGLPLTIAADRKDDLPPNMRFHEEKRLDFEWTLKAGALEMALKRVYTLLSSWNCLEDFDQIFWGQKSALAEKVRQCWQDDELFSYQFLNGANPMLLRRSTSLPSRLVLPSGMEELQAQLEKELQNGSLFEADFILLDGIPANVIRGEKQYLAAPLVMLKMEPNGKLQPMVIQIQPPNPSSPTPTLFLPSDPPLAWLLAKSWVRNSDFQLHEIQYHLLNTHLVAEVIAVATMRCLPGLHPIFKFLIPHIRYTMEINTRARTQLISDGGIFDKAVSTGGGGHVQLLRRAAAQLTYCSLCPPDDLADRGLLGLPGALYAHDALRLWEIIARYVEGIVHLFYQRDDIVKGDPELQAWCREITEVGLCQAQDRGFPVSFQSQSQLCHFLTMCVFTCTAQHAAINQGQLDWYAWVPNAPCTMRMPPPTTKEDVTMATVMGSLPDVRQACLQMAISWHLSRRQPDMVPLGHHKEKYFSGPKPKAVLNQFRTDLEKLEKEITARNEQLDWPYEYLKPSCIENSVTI
Excerpt: Assay Provider: Holman, T.R., University of California, Santa Cruz Screening Center PI: Austin, C.P. Screening Center: NIH Chemical Genomics Center [NCGC] Human lipoxygenase 12hLO is a member of the closely related lipoxygenase family of enzymes which catalyze the site-specific oxidation of arachidonic acid to various hormone precursor molecules and as such is a candidate for drug development in a variety of disease areas, such as cancer and inflammation. Inhibition of 12hLO activity was screened by utilizing arachidonic acid as a substrate. The extent of hydroperoxide product formation was measured by a secondary chromogenic reaction in which xylenol orange (XO, Sigma-Aldrich, cat. number 39,818-7) reacts with the ferric ions produced from the reaction between the hydroperoxide and ferrous ions. The Fe(III)-XO complex is characterized with red-shifted absorbance at 560 nm. A purified preparation of human 12hLO was supplied by Professor Ted Holman, University of California, Santa Cruz.
Assay Protocol: Buffer: 25 mM Hepes pH 7.0, 0.01% Triton X-100. Reagents/Controls: Buffer in columns 3 and 4 as negative control (no enzyme). Substrate solution: 40 uM arachidonic acid (Sigma-Aldrich, St. Louis, MO) final concentration dispensed throughout the plate. Enzyme: 150 nM 12hLO final concentration in columns 1, 2, 5-48. Column 1 is neutral (100% activity). Column 2 contained pin-transferred titration of NDGA (nordihidroguaiaretic acid, Sigma-Aldrich, N 5023, top concentration 20 mM in DMSO, then 1:3 dilution in duplicate). (Dilution factor: 23 nL into 4 uL.) Chromogenic detection reagent (divalent iron/xylenol orange, Fe-XO): 200 uM xylenol orange plus 300 uM ferrous ammonium sulfate prepared freshly in 50 mM sulfuric acid. Assay Steps: Three uL of enzyme were dispensed to 1536-well Greiner black clear bottom plates. Compounds and controls (23 nL) were transferred via Kalypsys PinTool. The plates were incubated for 15 min at room temperature, and then 1 uL of substrate solution was added to start the reaction. After room temperature incubation for 30 minutes, 4 uL of Fe-XO solution was added to each well and the plates were incubated for 30 min. The absorbance at 405 and 573 nm were measured using ViewLux (Perkin-Elmer) High-throughput CCD imager and absorbance protocol settings. The 573-to-405 absorbance ratio was used to compute reaction progress.
Further: nearly all actives have a fitted effect of over 55% in size.
On the % scale 0 is the no-effect control and ±100 the full control effect; potency means the concentration at half of the fitted maximal effect; tags describe the fitted curve by direction and shape.

Potency, inactive:
CCN(CC)S(=O)(=O)c1ccc(N2CCOCC2)c(NS(=O)(=O)c2ccc(C)cc2)c1, O=C(O)CC/C=C\CC[C@H]1[C@@H](N2CCCCC2)[C@@H](O)C[C@@H]1OCc1ccc(-c2ccccc2)cc1, O=C(CSc1nnc(-c2ccncc2)n1Cc1ccco1)N1c2ccccc2Sc2ccc(Cl)cc21, COCCNC(=O)c1cc(Br)ccc1Cl, Cc1ccc(NC(=S)NNc2ncc(C(F)(F)F)cc2Cl)cc1, O=C(c1cc(C(F)(F)F)cc(C(F)(F)F)c1)N1CCC[C@@]2(CCN(Cc3nccs3)C2)C1, CCC(C)(C(=O)NC1CCCC1)N(Cc1cccs1)C(=O)Cc1cccs1 (centres undefined), C[C@H](N)c1nnc(SCC(=O)c2ccc(Cl)cc2)o1, CCCC12CN3CCN(CC(C3)/C1=N\NC(=O)c1ccccc1N)C2, CCCNC(=O)COC(=O)c1ccc(Cl)c(S(=O)(=O)N2CCCC2)c1, CC(C)NC[C@@H](O)COc1ccc(COCCOC(C)C)cc1, O=C(CCN1C(=O)CSC1=O)Nc1ccc(Br)cc1, N=C1N(/N=C/c2ccccc2)C(=Nc2ccccc2)C(=S)N1c1ccccc1, Cc1ncc([N+](=O)[O-])n1CCO, Cc1c(Cl)cnc(NC(=O)COC(=O)c2ccc([N+](=O)[O-])s2)c1Cl, CC1(C)Cc2cccc(OCC(=O)N3CCN(c4ccccc4)CC3)c2O1

Potency, inconclusive:
CC(NCCC(c1ccccc1)c1ccccc1)c1ccccc1 (centres undefined) 39.8 µM [inhibitor, single point], COc1cc(CNn2c(C)n[nH]c2=S)cc(Cl)c1OCc1ccc(F)cc1 25.1 µM [inhibitor, single point], COc1ccc(OC)c(Nc2nc(-c3ccc(O)c(O)c3)cs2)c1 12.6 µM [inhibitor, partial curve], O=C(CN1CCN(C2CCCCC2)CC1)Nc1ccccc1-c1ccccc1 39.8 µM [inhibitor, single point], O=S(=O)(Nc1ccc2c(c1)nc1n2CCN(Cc2ccccc2)C1)c1ccc(Cl)cc1 17.8 µM [inhibitor, partial curve], CCCCn1c(-c2csc(C(C)C)c2)n[nH]c1=S 35.5 µM [inhibitor, single point], O=C(CSc1n[nH]c(-c2ccccc2O)n1)N1CCCc2ccccc21 0.891 µM [inhibitor, full curve, poor fit], Cc1cccc(C)c1NC(=S)NC(=O)CCc1ccccc1 28.2 µM [inhibitor, single point], CCCSC1=C(C#N)C(c2ccc(Cl)cc2Cl)CC(=O)N1 (centres undefined) 31.6 µM [inhibitor, single point], Cc1cc(O)c(/C=N/Nc2ccc(Cl)cc2)c(=O)o1 20 µM [inhibitor, partial curve], Cc1cc(O)ccc1-c1cnc2ccccc2n1 17.8 µM [inhibitor, partial curve], CCC1=C/C(=C\c2ccc3c(c2)OCO3)C(=O)S1 10 µM [inhibitor, partial curve], COc1ccc2nc(Nc3sc4c(c3C(N)=O)CCCC4)sc2c1 39.8 µM [inhibitor, single point], COC(=O)/C=C1/S/C(=N/NC(=O)c2ccccc2C)NC1=O 14.1 µM [inhibitor, partial curve], CC/C(=N\NC(=S)Nc1cc(C)ccc1C)c1ccc(OC(F)F)cc1 39.8 µM [inhibitor, single point], O=[N+]([O-])CC(=Nc1ccc(Cl)cc1)N/N=C\c1oc(O)c2ccccc12 20 µM [inhibitor, partial curve], Cc1ccc(S(=O)(=O)N(C(=O)c2ccco2)c2cc3sc(=O)oc3c3ccccc23)cc1 12.6 µM [inhibitor, partial curve], CC(Nc1nc(N2CCCCC2)nc2ccccc12)c1ccccc1 (centres undefined) 11.2 µM [inhibitor, partial curve], COc1cc(NS(=O)(=O)c2ccc(NC(=S)NC(=O)c3cccs3)cc2)nc(OC)n1 15.8 µM [inhibitor, partial curve], CCCn1c(NC(=S)Nc2ccccc2)nc2ccccc21 3.98 µM [inhibitor, single point], Cc1cccc(NC(=S)NCc2ccc3[nH]c4c(c3c2)CCCC4)c1 31.6 µM [inhibitor, single point], Cc1snc(S(=O)(=O)/C(C#N)=N/Nc2cccc(C(F)(F)F)c2)c1C#N 10 µM [inhibitor, partial curve], FC(F)(F)c1cccc(NC(=S)NNC(=S)NCc2ccccc2)c1 10 µM [inhibitor, partial curve], O=C(O)c1c(Br)c(Br)c(Br)c(Br)c1C1c2ccc(O)cc2Oc2cc(O)ccc21 2.82 µM [inhibitor, partial curve], Cc1cc(C)c2cc(CN(Cc3ccco3)C(=O)NCc3ccccc3)c(=O)[nH]c2c1 12.6 µM [inhibitor, partial curve], COc1cccc(N2CCN(CC(=O)c3c[nH]c4ccc(OC)cc34)CC2C)c1 (centres undefined) 39.8 µM [inhibitor, single point], O=C(NC(=S)NCc1ccccc1)C1CCCCC1 31.6 µM [inhibitor, single point], COc1cccc2c(=O)c(C/C=C(/C)Cl)c(C)[nH]c12 4.47 µM [inhibitor, single point], N#Cc1cn(-c2ccccc2)nc1-c1ccco1 31.6 µM [inhibitor, partial curve], COc1ccccc1CC(Cc1nc2ccccc2[nH]1)c1nc2ccccc2[nH]1 (centres undefined) 39.8 µM [inhibitor, single point], Cc1cccc(NC(=S)N/N=C/c2c[nH]c3ccccc23)c1 39.8 µM [inhibitor, single point], CCCCNC(=S)N/N=C/c1ccccc1F 28.2 µM [inhibitor, single point], CC(/C=N/n1c(C2CCCCC2)n[nH]c1=S)=C\c1ccccc1 31.6 µM [inhibitor, single point], Cc1cccc(C(=O)NC(=S)Nc2ccc(Cc3ccncc3)cc2)c1 25.1 µM [inhibitor, single point], Cc1cc(/C=C(/C#N)c2nc3ccccc3[nH]2)c(C)n1-c1cccc([N+](=O)[O-])c1 31.6 µM [inhibitor, partial curve], Cc1ccc(-n2c(C3CC3c3ccc(Cl)cc3)n[nH]c2=S)cc1 (centres undefined) 39.8 µM [inhibitor, single point], Cc1ccc(S(=O)(=O)C(C#N)c2nc3ccccc3nc2N2CCC(C)CC2)cc1 (centres undefined) 39.8 µM [inhibitor, single point], Cc1cccc(Cn2c(=O)c3c(nc4n3CCCN4Cc3ccccc3)n(C)c2=O)c1 5.01 µM [inhibitor, partial curve], CCOC(=O)c1c(C)n(-c2ccc(C)cc2)c2c(C(C(C)=O)C(=O)O)c(Br)c(O)c(O)c12 (centres undefined) 5.01 µM [inhibitor, full curve], S=C(NCCSCc1ccc(Cl)cc1)Nc1ccccc1 25.1 µM [inhibitor, single point], Oc1ccc(CNc2ccc(F)cc2)c2cccnc12 10 µM [inhibitor, partial curve], CC(=O)N1CCN(c2ccc(NCc3ccc(F)cc3)cc2)CC1 14.1 µM [inhibitor, partial curve], C=CCc1cccc(C2Nc3ccccc3C(=O)N2O)c1O (centres undefined) 0.316 µM [inhibitor, full curve], CC(C)c1ccc(C2CC(=O)N3CN(Cc4ccco4)CSC3=C2C#N)cc1 (centres undefined) 25.1 µM [inhibitor, single point], O=C(C1CCCO1)N1CCN(Cc2c(O)ccc3ccccc23)CC1 (centres undefined) 15.8 µM [inhibitor, partial curve], COc1ccc(NC(=S)NCCc2ccc(Cl)cc2)c(OC)c1 10 µM [inhibitor, partial curve], O=C(NC(NC(=S)Nc1ccccc1)C(Cl)(Cl)Cl)c1cccc(Cl)c1 (centres undefined) 25.1 µM [inhibitor, partial curve], Cc1ccc(/C=C2\SC(=S)N(Cc3ccccc3)C2=O)o1 14.1 µM [inhibitor, partial curve], CCOC(=O)CN1NC2(CCC(C(C)(C)C)CC2)NC1=S (centres undefined) 35.5 µM [inhibitor, single point]

Potency, active:
CC(=O)N1CCN(c2ccc(NCc3ccc(C)s3)cc2)CC1 11.2 µM, O=c1c2ccccc2sn1-c1cc(S(=O)(=O)N2CCOCC2)ccc1N1CCOCC1 2.24 µM

Activity change, negative = inhibition, inactive:
C=CC1=C2C=C(C3CC3)N(CC(C)C)C=C2C(=O)C(C)(OC(=O)c2ccco2)C1=O (centres undefined) 0.586% [at 11.4 µM], O=c1cc(-c2ccc(F)cc2F)[nH]c2ccc(F)cc12 0.248% [at 0.00818 µM]
